The text below walks through data of the supplement of paper PMC4604168 (melanoma cell lines).

What all share (assay): cell count relative to DMSO control; melanoma cells; higher = more viable cells
What all share (details): library dose: standard library concentration; 72 h

The subject of assay [1] is SkMel28.
Assay [2] has as its system SkMel2.
Assay [3] relates to SkMel30.
For assay [4], the system named is SkMel5.
In assay [5] the test system is UACC257.
Assay [6] deals with UACC62.
For assay [7], the system named is WM115.
Assay [8] relates to WM1716.
Assay [9] has as its system WM1745.
Assay [10] deals with WM3526.

Some of the results follow. Many values rest on one well or one pass, so single values are uncertain.
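Note: cells treated in 1,536-well plates, then fixed and DAPI-stained, with nuclei counted from automated high-throughput microscope images.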

For the compound `CC(C)C[C@H](NC(=O)[C@H](Cc1ccccc1)NC(=O)c1cnccn1)B(O)O` [Bortezomib] + C[As](C)SC[C@H](NC(=O)CC[C@H](N)C(=O)O)C(=O)NCC(=O)O [Darinaparsin] (first compound 0.005 µM, partner dose 2 µM), the cell count was 19.6% in [1]; 35.4% in [2]; 21.2% in [3]; 19.7% in assay [4]; 77.5% in assay [5]; 62.9% in assay [6]. Besides, the cell count turned out to be 23.9% in assay [7], 17.7% in assay [8], 44.9% in assay [9] and 25.3% in assay [10].

`c1cc(-c2cnn3cc(-c4ccc(OCCN5CCCCC5)cc4)cnc23)ccn1` [Dorsomorphin] + O=C(Oc1ccc([N+](=O)[O-])cc1)N1CCC(C(O)(c2ccc3c(c2)OCO3)c2ccc3c(c2)OCO3)CC1 [JZL184] (first compound 2 µM, partner dose 5 µM): the cell count in [1] was found to be 58.7%; in assay [2], 94.9%; in [3], 87.6%; in assay [4], 58.5%; in assay [5], 81.5%; in assay [6], 52.8%. Besides, the cell count was determined as 76% in [7], 94.6% in assay [8], 40.9% in assay [9] and 63.6% in assay [10].

With `C#Cc1cccc(Nc2ncnc3cc(OCCOC)c(OCCOC)cc23)c1` [erlotinib] + O=C(Oc1ccc([N+](=O)[O-])cc1)N1CCC(C(O)(c2ccc3c(c2)OCO3)c2ccc3c(c2)OCO3)CC1 [JZL184] (first compound 4 µM, partner dose 5 µM), the cell count stood at 70.8% in assay [1]; 81.7% in assay [2]; 72.5% in [3]; 77.5% in assay [4]; 102% in [5]; 86.3% in assay [6]. Further, the cell count in assay [7] was 78.6%; in assay [8], 91.6%; in assay [9], 59.7%; in [10] it was 72%.

Regarding `Cn1c(Nc2ccc(C(F)(F)F)cc2)nc2cc(Oc3ccnc(-c4ncc(C(F)(F)F)[nH]4)c3)ccc21` + O=C(Oc1ccc([N+](=O)[O-])cc1)N1CCC(C(O)(c2ccc3c(c2)OCO3)c2ccc3c(c2)OCO3)CC1 [JZL184] (first compound 0.4 µM, partner dose 5 µM), the cell count in [1] stood at 40.2%; in [2] it was 45.3%; in assay [3] it was 59.9%; in assay [4] it was 31.9%; in [5] it was 71%; in assay [6], 44.8%. Besides, the cell count in assay [7] came to 42.1%; in assay [8], 67.9%; in assay [9], 61.8%; in assay [10], 43.3%.

With `COCC[n+]1c2c(n(Cc3cnccn3)c1C)C(=O)c1ccccc1C2=O` + Cc1cc(SCc2sc(-c3ccc(C(F)(F)F)c(F)c3)nc2C)ccc1OCC(=O)O [GW0742] (first compound 0.002 µM, partner dose 10 µM), the cell count in [1] was found to be 43.1%; in assay [2], 36.2%; in [3], 80.4%; in assay [4] it was 42%; in assay [5], 28.8%; in assay [6], 95.1%. The cell count in [7] was 80.7%; in [8] it was 84%; in assay [9] it was 118%; in assay [10], 57.7%.

In the case of `C#Cc1cccc(Nc2ncnc3cc(OCCOC)c(OCCOC)cc23)c1` [erlotinib] + C[As](C)SC[C@H](NC(=O)CC[C@H](N)C(=O)O)C(=O)NCC(=O)O [Darinaparsin] (first compound 4 µM, partner dose 2 µM), the cell count was determined as 54.1% in assay [1]; 78.2% in [2]; 53.3% in [3]; 48.2% in assay [4]; 81.7% in assay [5]; 54% in assay [6]. Besides, the cell count turned out to be 61.5% in assay [7], 63.6% in assay [8], 68.8% in assay [9] and 54.6% in [10].

Regarding `Oc1cc(-c2nc(-c3ccccc3)[nH]c2-c2ccncc2)ccc1Cl` + O=C(Oc1ccc([N+](=O)[O-])cc1)N1CCC(C(O)(c2ccc3c(c2)OCO3)c2ccc3c(c2)OCO3)CC1 [JZL184] (first compound 1 µM, partner dose 5 µM), the cell count is 50.5% in assay [1]; 27.9% in [2]; 78.6% in assay [3]; 64.8% in assay [4]; 83.3% in assay [5]; 42.5% in assay [6]. In addition, the cell count in [7] was determined as 53%; in [8] it was 71.3%; in assay [9] it was 56.2%; in assay [10] it was 46.1%.

On to `C[C@@H]1CCN(C(=O)CC#N)C[C@@H]1N(C)c1ncnc2[nH]ccc12` + Cc1cc(SCc2sc(-c3ccc(C(F)(F)F)c(F)c3)nc2C)ccc1OCC(=O)O [GW0742] (first compound 5 µM, partner dose 10 µM), for which the cell count in assay [1] worked out at 90.5%; in assay [2], 98.1%; in assay [3], 100%; in assay [4], 93.4%; in [5], 111%; in assay [6], 139%. The cell count in assay [7] was determined as 102%; in assay [8] it was 117%; in assay [9], 94.3%; in assay [10], 105%.

`Cc1cc([N+](=O)[O-])ccc1NS(=O)(=O)c1cc(Cl)ccc1Cl` + O=C(Oc1ccc([N+](=O)[O-])cc1)N1CCC(C(O)(c2ccc3c(c2)OCO3)c2ccc3c(c2)OCO3)CC1 [JZL184] (first compound 5 µM, partner dose 5 µM): the cell count in assay [1] came to 88.7%; in assay [2], 98.9%; in assay [3], 91.8%; in assay [4] it was 83.6%; in assay [5] it was 55.9%; in assay [6], 80.3%. For the same compound, the cell count stood at 80.2% in assay [7], 82.7% in [8], 87.9% in [9] and 67.6% in assay [10].

Take `COc1cc2ncnc(Nc3ccc(Oc4ccccc4)cc3)c2cc1OC` + C/C(O)=C(\C#N)C(=O)Nc1cc(Br)ccc1Br [LFM-A13] (first compound 10 µM, partner dose 10 µM): the cell count in assay [1] amounted to 62.8%; in assay [2], 87.6%; in assay [3], 100%; in assay [4] it was 112%; in [5], 94%; in [6], 98.1%. Also, the cell count in assay [7] worked out at 86.8%; in assay [8], 116%; in assay [9] it was 75.7%; in assay [10], 72.4%.

For the compound `CO[C@H]1C[C@@H]2CC[C@@H](C)[C@@](O)(O2)C(=O)C(=O)N2CCCC[C@H]2C(=O)O[C@H]([C@H](C)C[C@@H]2CC[C@@H](OCCO)[C@H](OC)C2)CC(=O)[C@H](C)/C=C(\C)[C@@H](O)[C@@H](OC)C(=O)[C@H](C)C[C@H](C)/C=C/C=C/C=C/1C` [everolimus] + C[As](C)SC[C@H](NC(=O)CC[C@H](N)C(=O)O)C(=O)NCC(=O)O [Darinaparsin] (first compound 0.1 µM, partner dose 2 µM), the cell count in [1] was determined as 35.2%; in [2] it was 59.5%; in assay [3] it was 61.5%; in assay [4] it was 37.1%; in assay [5], 93.7%; in assay [6], 49.1%. Besides, the cell count in assay [7] stood at 51.1%; in [8], 51.3%; in assay [9], 66.2%; in assay [10] it was 52.7%.
